Patent publication US20140045779A1, “COMPOUNDS CONTAINING AN ALICYCLIE STRUCTURE AND ANTI-TUMOR APPLICATION” (priority 2011, published 2014)
In brackets after ≈: the same amount, converted by molar mass.

test system: human lung cancer cell line NCI-H460; experiment: In vitro anti-cancer cell experiment (MTT), NCI-H460; conditions: NCI-H460, read-out: IC50, anti-proliferative effect on NCI-H460 cells

Row | IC50 | SMILES
1 | 4.89 µg/mL (≈ 10.1 µM) | COc1cc(C23CN4CN(C2)CC(c2cc(OC)c(OC)c(OC)c2)(C4)C3=O)cc(OC)c1OC [Example 62, (1r,3r,5r,7r)-5,7-bis(3,4,5-trimethoxyphenyl)-1,3-diazaadamantan-6-one]
2 | 13.7 µg/mL (≈ 89.7 µM) | O=C1C2CC3CC(C2)OC1C3 (stereo not shown) [Example 43, 2-oxaadamantan-4-one]
3 | 17.2 µg/mL (≈ 112 µM) | OC12CC3CC(CC(C3)O1)C2 [Example 47, 2-oxaadamantan-1-ol]

Row | SMILES | IC50
4 | CCCCCNC12CN3CN(CN(C3)C1)C2 [Example 68, (1s,3s,5s)-N-pentyl-1,3,5-triazaadamantan-7-amine] | 3.38 µg/mL (≈ 15.1 µM)
